Test results from the supplement of paper PMC8728848.
Some of the results follow.

Experiments:
Assay in all cases: glycan array binding signal (z-score within array); higher = stronger binding
Conditions in all cases: glycan notation: IUPAC condensed, linker removed; mutation: D109R
[1] = target: Fuc(a1-2)[GalNAc(a1-3)]Gal(b1-3)GlcNAc(b1-3)GalNAc
How it was run: (§1)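 Glycan array binding is given as a within-array Z-score, which can be read as non-binding when negative. The arrays, 3228 of them, came from the Consortium for Functional Glycomics database and were retained only where the protein sequence was available. Z-scores were averaged across arrays of the same protein sequence at different concentrations or buffers and across linkers.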

[2] = target: Fuc(a1-2)[GalNAc(a1-3)]Gal(b1-3)GlcNAc(b1-6)GalNAc
How it was run: as §1

[3] = target: Fuc(a1-2)[GalNAc(a1-3)]Gal(b1-4)Glc
How it was run: as §1

[4] = target: Fuc(a1-2)[GalNAc(a1-3)]Gal(b1-4)GlcNAc
How it was run: as §1

[5] = target: Fuc(a1-2)[GalNAc(a1-3)]Gal(b1-4)GlcNAc(b1-2)Man
How it was run: as §1

[6] = target: Fuc(a1-2)[GalNAc(a1-3)]Gal(b1-4)GlcNAc(b1-2)Man(a1-3)[Fuc(a1-2)[GalNAc(a1-3)]Gal(b1-4)GlcNAc(b1-2)Man(a1-6)]Man(b1-4)GlcNAc(b1-4)GlcNAc
How it was run: as §1

[7] = target: Fuc(a1-2)[GalNAc(a1-3)]Gal(b1-4)GlcNAc(b1-2)Man(a1-3)[Fuc(a1-2)[GalNAc(a1-3)]Gal(b1-4)GlcNAc(b1-2)Man(a1-6)]Man(b1-4)GlcNAc(b1-4)[Fuc(a1-6)]GlcNAc
How it was run: as §1

[8] = target: Fuc(a1-2)[GalNAc(a1-3)]Gal(b1-4)GlcNAc(b1-3)Gal(b1-4)GlcNAc
How it was run: as §1

[9] = target: Fuc(a1-2)[GalNAc(a1-3)]Gal(b1-4)GlcNAc(b1-3)Gal(b1-4)GlcNAc(b1-3)Gal(b1-4)GlcNAc
How it was run: as §1

[10] = target: Fuc(a1-2)[GalNAc(a1-3)]Gal(b1-4)GlcNAc(b1-3)GalNAc
How it was run: as §1

[11] = target: Fuc(a1-2)[GalNAc(a1-3)]Gal(b1-4)GlcNAc(b1-3)[Fuc(a1-2)[GalNAc(a1-3)]Gal(b1-4)GlcNAc(b1-6)]GalNAc
How it was run: as §1

[12] = target: Fuc(a1-2)[GalNAc(a1-3)]Gal(b1-4)GlcNAc(b1-6)GalNAc
How it was run: as §1

[13] = target: Fuc(a1-2)[GalNAc(a1-3)]Gal(b1-4)[Fuc(a1-3)]GlcNAc
How it was run: as §1

[14] = target: Fuc(a1-2)[GalNAc(a1-3)]Gal(b1-4)[Fuc(a1-3)]GlcNAc(b1-3)GalNAc
How it was run: as §1

[15] = target: Fuc(a1-2)[GalNAc(a1-4)]Gal(b1-4)GlcNAc
How it was run: as §1

[16] = target: Fuc(a1-2)[GalNAc(b1-3)]Gal
How it was run: as §1

Fuc(a1-3)GlcNAc = target: Fuc(a1-3)GlcNAc
How it was run: as §1

[17] = target: Fuc(a1-3)[Gal(b1-4)]Glc6S
How it was run: as §1

[18] = target: Fuc(a1-3)[Gal(b1-4)]GlcNAc
How it was run: as §1

[19] = target: Fuc(a1-3)[Gal(b1-4)]GlcNAc(b1-2)Man
How it was run: as §1

[20] = target: Fuc(a1-3)[Gal(b1-4)]GlcNAc(b1-2)Man(a1-3)[Fuc(a1-3)[Gal(b1-4)]GlcNAc(b1-2)Man(a1-6)]Man(b1-4)GlcNAc(b1-4)GlcNAc
How it was run: as §1

[21] = target: Fuc(a1-3)[Gal(b1-4)]GlcNAc(b1-2)Man(a1-3)[Fuc(a1-3)[Gal(b1-4)]GlcNAc(b1-2)Man(a1-6)]Man(b1-4)GlcNAc(b1-4)[Fuc(a1-6)]GlcNAc
How it was run: as §1

[22] = target: Fuc(a1-3)[Gal(b1-4)]GlcNAc(b1-3)Gal(b1-3)[Fuc(a1-4)]GlcNAc
How it was run: as §1

[23] = target: Fuc(a1-3)[Gal(b1-4)]GlcNAc(b1-3)Gal(b1-4)[Fuc(a1-3)]GlcNAc
How it was run: as §1

[24] = target: Fuc(a1-3)[Gal(b1-4)]GlcNAc(b1-3)Gal(b1-4)[Fuc(a1-3)]GlcNAc(b1-3)Gal(b1-4)[Fuc(a1-3)]GlcNAc
How it was run: as §1

[25] = target: Fuc(a1-3)[Gal(b1-4)]GlcNAc(b1-3)GalNAc
How it was run: as §1

[26] = target: Fuc(a1-3)[Gal(b1-4)]GlcNAc(b1-6)GalNAc
How it was run: as §1

[27] = target: Fuc(a1-3)[Gal(b1-4)]GlcNAc(b1-6)[Gal(b1-3)GlcNAc(b1-3)]Gal(b1-4)Glc
How it was run: as §1

[28] = target: Fuc(a1-3)[Gal(b1-4)]GlcNAc6S
How it was run: as §1

[29] = target: Fuc(a1-3)[Gal3S(b1-4)]Glc
How it was run: as §1

[30] = target: Fuc(a1-3)[Gal3S(b1-4)]GlcNAc
How it was run: as §1

[31] = target: Fuc(a1-3)[Gal3S(b1-4)]GlcNAc6S
How it was run: as §1

[32] = target: Fuc(a1-3)[GalNAc(b1-4)]GlcNAc
How it was run: as §1

[33] = target: Fuc(a1-3)[GalNAc(b1-4)]GlcNAc6S
How it was run: as §1

Fuc(a1-4)GlcNAc = target: Fuc(a1-4)GlcNAc
How it was run: as §1

Fuc(b1-3)GlcNAc = target: Fuc(b1-3)GlcNAc
How it was run: as §1

Gal(a1-2)Gal = target: Gal(a1-2)Gal
How it was run: as §1

B1: MpL2 (Macrolepiota procera) (protein)
chain: MSTQVSSGQTYKITNVKAGTVIDLSGEDNKSIIGYPYHSGKNQQWTFNWTGKAWTLRSASSGSYLGIEGTPADGTRLVAVNDPFEWHIWRDEANENAFRIFVPFTNYNLRLSGYGDTTPGTPVQLWWTWEGLHQTWTIDRP
In the case of B1, the “glycan array binding signal (z-score)” value [1] is reported as -0.187, the “glycan array binding signal (z-score)” value [2] is reported as -0.29 and the “glycan array binding signal (z-score)” value [3] is reported as -0.247. For the same binder, the “glycan array binding signal (z-score)” value [4] was -0.264, the “glycan array binding signal (z-score)” value [5] was -0.302 and the “glycan array binding signal (z-score)” value [6] was -0.274. The “glycan array binding signal (z-score)” value [7] was -0.241, the “glycan array binding signal (z-score)” value [8] was -0.263 and the “glycan array binding signal (z-score)” value [9] was -0.197. For the same binder, the “glycan array binding signal (z-score)” value [10] was -0.293, the “glycan array binding signal (z-score)” value [11] was -0.266 and the “glycan array binding signal (z-score)” value [12] was -0.295. The “glycan array binding signal (z-score)” value [13] was -0.222, the “glycan array binding signal (z-score)” value [14] was -0.088 and the “glycan array binding signal (z-score)” value [15] was -0.338. The “glycan array binding signal (z-score)” value [16] was -0.247, the “glycan array binding signal (z-score)” value (Fuc(a1-3)GlcNAc) was -0.272 and the “glycan array binding signal (z-score)” value [17] was -0.275. The “glycan array binding signal (z-score)” value [18] was -0.256, the “glycan array binding signal (z-score)” value [19] was -0.293 and the “glycan array binding signal (z-score)” value [20] was -0.267. For the same binder, the “glycan array binding signal (z-score)” value [21] was -0.216, the “glycan array binding signal (z-score)” value [22] was -0.285 and the “glycan array binding signal (z-score)” value [23] was -0.257. For the same binder, the “glycan array binding signal (z-score)” value [24] was -0.272, the “glycan array binding signal (z-score)” value [25] was -0.254 and the “glycan array binding signal (z-score)” value [26] was -0.191. The “glycan array binding signal (z-score)” value [27] was 0.236, the “glycan array binding signal (z-score)” value [28] was -0.237 and the “glycan array binding signal (z-score)” value [29] was -0.239. For the same binder, the “glycan array binding signal (z-score)” value [30] was -0.247, the “glycan array binding signal (z-score)” value [31] was -0.255 and the “glycan array binding signal (z-score)” value [32] was -0.239. For the same binder, the “glycan array binding signal (z-score)” value [33] was -0.26, the “glycan array binding signal (z-score)” value (Fuc(a1-4)GlcNAc) was -0.251 and the “glycan array binding signal (z-score)” value (Fuc(b1-3)GlcNAc) was -0.258. For the same binder, the “glycan array binding signal (z-score)” value (Gal(a1-2)Gal) was -0.285.
